For assay [1], the target named is T1, GST-tagged mTRPM7 exchange segment (a.a. 1548-1576) (mouse) (UniProt Q923J1).
T1 sequence: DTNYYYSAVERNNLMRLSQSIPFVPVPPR
Kind of assay: pull-down; GST-exchange bound on glutathione agarose incubated overnight at 4 °C with HEK-293T lysate containing transiently expressed GFP-TRPM7-Cterm WT or mutants; detected by anti-GFP immunoblot; only the target purified.

The target in assay [2] is GFP-TRPM7-Cterm WT (COOH-terminal fragment of mouse TRPM7, a.a. 1120-1863) (mouse) (UniProt Q923J1). As to the kind of experiment: pull-down; indirect read-out of kinase dimerization: if the dimer of GFP-TRPM7-Cterm in the HEK-293T lysate is disrupted, GST-exchange on glutathione agarose can capture the kinase; if it is intact, it cannot.
The target of assay [3] is GFP-TRPM7-Cterm-S1565A (mouse) (UniProt Q923J1). The assay is described as above.
Assay [4] addresses GFP-TRPM7-Cterm-S1565D (mouse) (UniProt Q923J1). The description is as above.

These are yes or no findings as the source states them, for the method shown. In cells and extracts the contact can be indirect. Some results given as binding are weak or reduced against the parent protein; the word gives no strength. Tags and fused reporters may be left off the sequences shown.

B1: GFP-TRPM7-Cterm-L1564P (domain or fragment, UniProt Q923J1 1120-1863)
chain: MAYHEKPVLPPPLIILSHIVSLFCCVCKRRKKDKTSDGPKLFLTEEDQKKLHDFEEQCVEMYFDEKDDKFNSGSEERIRVTFERVEQMSIQIKEVGDRVNYIKRSLQSLDSQIGHLQDLSALTVDTLKTLTAQKASEASKVHNEITRELSISKHLAQNLIDDVPVRPLWKKPSAVNTLSSSLPQGDRESNNPFLCNIFMKDEKDPQYNLFGQDLPVIPQRKEFNIPEAGSSCGALFPSAVSPPELRQRRHGVEMLKIFNKNQKLGSSPNSSPHMSSPPTKFSVSTPSQPSCKSHLESTTKDQEPIFYKAAEGDNIEFGAFVGHRDSMDLQRFKETSNKIRELLSNDTPENTLKHVGAAGYSECCKTSTSLHSVQAESCSRRASTEDSPEVDSKAALLPDWLRDRPSNREMPSEGGTLNGLASPFKPVLDTNYYYSAVERNNLMRPSQSIPFVPVPPRGEPVTVYRLEESSPSILNNSMSSWSQLGLCAKIEFLSKEEMGGGLRRAVKVLCTWSEHDILKSGHLYIIKSFLPEVINTWSSIYKEDTVLHLCLREIQQQRAAQKLTFAFNQMKPKSIPYSPRFLEVFLLYCHSAGQWFAVEECMTGEFRKYNNNNGDEIIPTNTLEEIMLAFSHWTYEYTRGELLVLDLQGVGENLTDPSVIKAEEKRSCDMVFGPANLGEDAIKNFRAKHHCNSCCRKLKLPDLKRNDYTPDKIIFPQDESSDLNLQSGNSTKESEATNSVRLML
Turning to B1, in assay [1], the binding entry was “binds”.

B2: GFP-TRPM7-Cterm WT (COOH-terminal fragment of mouse TRPM7, a.a. 1120-1863) (domain or fragment, UniProt Q923J1 1120-1863)
chain: MAYHEKPVLPPPLIILSHIVSLFCCVCKRRKKDKTSDGPKLFLTEEDQKKLHDFEEQCVEMYFDEKDDKFNSGSEERIRVTFERVEQMSIQIKEVGDRVNYIKRSLQSLDSQIGHLQDLSALTVDTLKTLTAQKASEASKVHNEITRELSISKHLAQNLIDDVPVRPLWKKPSAVNTLSSSLPQGDRESNNPFLCNIFMKDEKDPQYNLFGQDLPVIPQRKEFNIPEAGSSCGALFPSAVSPPELRQRRHGVEMLKIFNKNQKLGSSPNSSPHMSSPPTKFSVSTPSQPSCKSHLESTTKDQEPIFYKAAEGDNIEFGAFVGHRDSMDLQRFKETSNKIRELLSNDTPENTLKHVGAAGYSECCKTSTSLHSVQAESCSRRASTEDSPEVDSKAALLPDWLRDRPSNREMPSEGGTLNGLASPFKPVLDTNYYYSAVERNNLMRLSQSIPFVPVPPRGEPVTVYRLEESSPSILNNSMSSWSQLGLCAKIEFLSKEEMGGGLRRAVKVLCTWSEHDILKSGHLYIIKSFLPEVINTWSSIYKEDTVLHLCLREIQQQRAAQKLTFAFNQMKPKSIPYSPRFLEVFLLYCHSAGQWFAVEECMTGEFRKYNNNNGDEIIPTNTLEEIMLAFSHWTYEYTRGELLVLDLQGVGENLTDPSVIKAEEKRSCDMVFGPANLGEDAIKNFRAKHHCNSCCRKLKLPDLKRNDYTPDKIIFPQDESSDLNLQSGNSTKESEATNSVRLML
As for B2, the binding result in assay [1] is “no binding”; in assay [2], “binds”.

B3: GFP-TRPM7-Cterm-S1565A (domain or fragment, UniProt Q923J1 1120-1863)
chain: MAYHEKPVLPPPLIILSHIVSLFCCVCKRRKKDKTSDGPKLFLTEEDQKKLHDFEEQCVEMYFDEKDDKFNSGSEERIRVTFERVEQMSIQIKEVGDRVNYIKRSLQSLDSQIGHLQDLSALTVDTLKTLTAQKASEASKVHNEITRELSISKHLAQNLIDDVPVRPLWKKPSAVNTLSSSLPQGDRESNNPFLCNIFMKDEKDPQYNLFGQDLPVIPQRKEFNIPEAGSSCGALFPSAVSPPELRQRRHGVEMLKIFNKNQKLGSSPNSSPHMSSPPTKFSVSTPSQPSCKSHLESTTKDQEPIFYKAAEGDNIEFGAFVGHRDSMDLQRFKETSNKIRELLSNDTPENTLKHVGAAGYSECCKTSTSLHSVQAESCSRRASTEDSPEVDSKAALLPDWLRDRPSNREMPSEGGTLNGLASPFKPVLDTNYYYSAVERNNLMRLAQSIPFVPVPPRGEPVTVYRLEESSPSILNNSMSSWSQLGLCAKIEFLSKEEMGGGLRRAVKVLCTWSEHDILKSGHLYIIKSFLPEVINTWSSIYKEDTVLHLCLREIQQQRAAQKLTFAFNQMKPKSIPYSPRFLEVFLLYCHSAGQWFAVEECMTGEFRKYNNNNGDEIIPTNTLEEIMLAFSHWTYEYTRGELLVLDLQGVGENLTDPSVIKAEEKRSCDMVFGPANLGEDAIKNFRAKHHCNSCCRKLKLPDLKRNDYTPDKIIFPQDESSDLNLQSGNSTKESEATNSVRLML
In the case of B3, the binding entry in assay [1] is reported as “no binding”; in assay [3], “binds”.

B4: GFP-TRPM7-Cterm-S1565D (domain or fragment, UniProt Q923J1 1120-1863)
chain: MAYHEKPVLPPPLIILSHIVSLFCCVCKRRKKDKTSDGPKLFLTEEDQKKLHDFEEQCVEMYFDEKDDKFNSGSEERIRVTFERVEQMSIQIKEVGDRVNYIKRSLQSLDSQIGHLQDLSALTVDTLKTLTAQKASEASKVHNEITRELSISKHLAQNLIDDVPVRPLWKKPSAVNTLSSSLPQGDRESNNPFLCNIFMKDEKDPQYNLFGQDLPVIPQRKEFNIPEAGSSCGALFPSAVSPPELRQRRHGVEMLKIFNKNQKLGSSPNSSPHMSSPPTKFSVSTPSQPSCKSHLESTTKDQEPIFYKAAEGDNIEFGAFVGHRDSMDLQRFKETSNKIRELLSNDTPENTLKHVGAAGYSECCKTSTSLHSVQAESCSRRASTEDSPEVDSKAALLPDWLRDRPSNREMPSEGGTLNGLASPFKPVLDTNYYYSAVERNNLMRLDQSIPFVPVPPRGEPVTVYRLEESSPSILNNSMSSWSQLGLCAKIEFLSKEEMGGGLRRAVKVLCTWSEHDILKSGHLYIIKSFLPEVINTWSSIYKEDTVLHLCLREIQQQRAAQKLTFAFNQMKPKSIPYSPRFLEVFLLYCHSAGQWFAVEECMTGEFRKYNNNNGDEIIPTNTLEEIMLAFSHWTYEYTRGELLVLDLQGVGENLTDPSVIKAEEKRSCDMVFGPANLGEDAIKNFRAKHHCNSCCRKLKLPDLKRNDYTPDKIIFPQDESSDLNLQSGNSTKESEATNSVRLML
Regarding B4, the binding result is recorded as “no binding” in assay [1] and “binds” in assay [4].

These data come from article PMC5318989.
